About 14,000 (4.5%) of roughly 310,000 compounds showed an effect of 50% or more. Effects have a minus sign here. The list shows a part of the results.
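Also: peak tail current of the secondary pulse compared with the same well before compound.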

human ether-à-go-go-related gene (hERG) potassium channel, sequence (Q12809 whole entry, looked up): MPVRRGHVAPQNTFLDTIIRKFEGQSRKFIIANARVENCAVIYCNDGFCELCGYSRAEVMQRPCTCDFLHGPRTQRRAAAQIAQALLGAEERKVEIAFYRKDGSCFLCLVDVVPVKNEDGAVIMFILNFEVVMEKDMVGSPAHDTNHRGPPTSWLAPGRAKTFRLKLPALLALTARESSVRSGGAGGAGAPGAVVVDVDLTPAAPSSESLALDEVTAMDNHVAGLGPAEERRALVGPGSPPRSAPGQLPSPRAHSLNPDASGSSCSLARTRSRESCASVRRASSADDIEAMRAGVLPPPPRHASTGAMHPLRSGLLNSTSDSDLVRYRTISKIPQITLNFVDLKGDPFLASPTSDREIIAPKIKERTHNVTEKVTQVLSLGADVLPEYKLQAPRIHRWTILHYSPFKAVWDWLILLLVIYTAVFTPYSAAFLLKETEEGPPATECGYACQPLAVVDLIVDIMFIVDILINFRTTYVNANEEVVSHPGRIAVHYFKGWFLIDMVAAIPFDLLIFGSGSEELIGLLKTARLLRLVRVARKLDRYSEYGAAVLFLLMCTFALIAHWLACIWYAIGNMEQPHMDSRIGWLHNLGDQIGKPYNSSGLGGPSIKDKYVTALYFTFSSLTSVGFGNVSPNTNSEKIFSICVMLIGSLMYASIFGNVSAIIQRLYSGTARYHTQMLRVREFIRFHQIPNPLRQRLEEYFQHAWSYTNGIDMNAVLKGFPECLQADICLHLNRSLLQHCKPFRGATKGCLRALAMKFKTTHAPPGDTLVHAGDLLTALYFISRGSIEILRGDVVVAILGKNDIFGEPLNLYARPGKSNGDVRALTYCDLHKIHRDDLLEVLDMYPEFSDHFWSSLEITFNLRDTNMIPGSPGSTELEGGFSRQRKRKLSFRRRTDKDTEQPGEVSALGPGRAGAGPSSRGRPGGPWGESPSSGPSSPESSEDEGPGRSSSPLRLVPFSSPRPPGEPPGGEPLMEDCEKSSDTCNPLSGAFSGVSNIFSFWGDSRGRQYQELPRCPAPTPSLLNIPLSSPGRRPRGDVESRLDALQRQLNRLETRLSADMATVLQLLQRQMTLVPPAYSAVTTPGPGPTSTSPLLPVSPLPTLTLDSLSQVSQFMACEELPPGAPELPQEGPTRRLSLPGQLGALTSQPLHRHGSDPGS

The test addresses human ether-à-go-go-related gene (hERG) potassium channel (human, UniProt Q12809). In words: primary screen, population patch clamp on CHO cells stably expressing hERG.
Regarding `CCNC(=O)n1nccc1C(C)Oc1cccc(C(F)(F)F)c1` (centres unmarked), the “hERG current change (%, negative = inhibition) at 10uM” value was -21.5%.

`CC1(C)CC(=O)c2cnc(NC3CC3)nc2C1`: the “hERG current change (%, negative = inhibition) at 10uM” value is 6.22%.

For the compound `CCOc1ccc(NS(=O)(=O)c2ccc(Cl)c(C(=O)N(C)Cc3cccnc3)c2)cc1`, the “hERG current change (%, negative = inhibition) at 10uM” value was -25.9%.

Turning to `CC(C)CC(=O)NS(=O)(=O)c1ccc(NC(=O)c2ccco2)cc1`, the “hERG current change (%, negative = inhibition) at 10uM” value amounted to 25.8%.

`NS(=O)(=O)c1cccc2c1c([N+](=O)[O-])cc1nc([O-])c([O-])nc12.[Na+]`: the “hERG current change (%, negative = inhibition) at 10uM” value came out at 29.6%.

Regarding `CCCOc1ncnc2c1[nH]c1ccc(C)cc12`, the “hERG current change (%, negative = inhibition) at 10uM” value came to 16.4%.

For `C/C(=N\NC(=O)c1ccccc1)c1ccccc1Br`, the “hERG current change (%, negative = inhibition) at 10uM” value is recorded as 31.6%.

On to `COC(=O)c1cccc(NC(=O)Cc2coc3cc(OC)ccc23)c1`, for which the “hERG current change (%, negative = inhibition) at 10uM” value turned out to be 1.64%.

As to `CC(=O)N1CCc2cc(S(=O)(=O)NCCC(=O)Nc3cccc(C)c3)ccc21`, the “hERG current change (%, negative = inhibition) at 10uM” value was -2.86%.

Regarding `NS(=O)(=O)c1cccc(NC(=O)COC(=O)C2CCN(S(=O)(=O)c3cccs3)CC2)c1`, the “hERG current change (%, negative = inhibition) at 10uM” value is reported as -1.16%.

With `O=C(O)Cc1csc(NC(=O)CSc2cccc(C(=O)O)n2)n1`, the “hERG current change (%, negative = inhibition) at 10uM” value is 16.9%.

Regarding `COc1cc(C(NC=O)C(=O)Nc2c(C)cccc2C)ccc1O` (centres unmarked), the “hERG current change (%, negative = inhibition) at 10uM” value is listed as 15.1%.

Consider `COc1ccccc1NC(=O)c1ccc(NC(=O)C2COc3ccccc3O2)cc1` (centres unmarked), for which the “hERG current change (%, negative = inhibition) at 10uM” value is given as -0.129%.

As for `CC1=C(C(=O)OCc2ccc3c(c2)OCO3)C(c2cccc([N+](=O)[O-])c2)NC(=O)N1` (centres unmarked), the “hERG current change (%, negative = inhibition) at 10uM” value was 15.9%.

For `O=C(Nc1cccnc1Cl)c1ccc(Cl)c([N+](=O)[O-])c1`, the “hERG current change (%, negative = inhibition) at 10uM” value was -3.09%.

`O=C(c1ccccc1)N1C(=O)C(c2ccccc2)Oc2ccccc21` (centres unmarked): the “hERG current change (%, negative = inhibition) at 10uM” value came out at 9.32%.

In the case of `O=C1/C(=C\c2ccco2)SC(=S)N1C1CCS(=O)(=O)C1` (centres unmarked), the “hERG current change (%, negative = inhibition) at 10uM” value was 6.62%.

For the compound `CCC(C)N(C(=O)CSc1ccc(NC(C)=O)cc1)C1CCS(=O)(=O)C1` (centres unmarked), the “hERG current change (%, negative = inhibition) at 10uM” value amounted to 47.5%.

On to `CC1C=CCC2C(=O)N(c3ccccc3OC(=O)c3cccs3)C(=O)C12` (centres unmarked), for which the “hERG current change (%, negative = inhibition) at 10uM” value was determined as 24.4%.

In the case of `CC(=O)Nc1ccc(S(=O)(=O)Oc2cccc(/C=N/N=C3/NC(=O)C(CC(=O)O)S3)c2)cc1` (centres unmarked), the “hERG current change (%, negative = inhibition) at 10uM” value was found to be 20.9%.

Turning to `CC1=CN2C(=N)/C(=C/c3ccc(Sc4ccc(Cl)cc4)o3)C(=O)N=C2S1`, the “hERG current change (%, negative = inhibition) at 10uM” value was 2.57%.

With `O=c1[nH]c(NCCO)nc2c1C1(CCCCC1)Cc1ccccc1-2`, the “hERG current change (%, negative = inhibition) at 10uM” value worked out at 7.03%.

On to `O=C(CCCc1ccccc1)Nc1ccnn1C1CCN(Cc2ccc(Cl)cc2)CC1`, for which the “hERG current change (%, negative = inhibition) at 10uM” value was -74.8%.
